{"source": "the supplement of paper PMC3334620", "note": "Whole data set: some 33,000 sequences, median “E-score (-0.5 to 0.5)” near -0.013, cut for the highest 2% near 0.3. This is one part of the list.", "data": [{"molecular_target": "T1, Msn1 (UniProt P22148)", "T1 sequence": "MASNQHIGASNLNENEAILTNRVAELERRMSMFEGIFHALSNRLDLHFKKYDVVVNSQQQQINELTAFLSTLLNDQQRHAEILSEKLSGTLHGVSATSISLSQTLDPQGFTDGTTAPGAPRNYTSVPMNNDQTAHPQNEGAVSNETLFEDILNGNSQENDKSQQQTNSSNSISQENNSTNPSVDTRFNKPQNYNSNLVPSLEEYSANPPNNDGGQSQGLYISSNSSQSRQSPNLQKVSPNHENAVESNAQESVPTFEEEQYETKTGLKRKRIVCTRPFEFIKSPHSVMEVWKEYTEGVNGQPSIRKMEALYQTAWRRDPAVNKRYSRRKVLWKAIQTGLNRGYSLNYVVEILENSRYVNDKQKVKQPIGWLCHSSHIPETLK", "assay": "PBM E-score (8-mer binding enrichment) (E-score (-0.5 to 0.5)); higher = stronger / more preferred TF binding; most listed sequences are background and not binding sites", "conditions": "protein concentration: 200 nM; construct: GST-full length", "how_it_was_run": "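For each ungapped eight-base word taken together with its reverse complement, the Universal PBM Analysis Suite assigned an E-score. Binding data came from GST-tagged yeast transcription factors, applied at about 100-200 nM, on universal all-10-mer Agilent arrays made double-stranded by primer extension. Fluorescent anti-GST marked bound protein, and scans were normalised with masliner.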", "values": [{"sequence": "CCTGGACG", "PBM E-score": -0.182}, {"sequence": "AGCAATTA", "PBM E-score": 0.0143}, {"sequence": "AATGACTG", "PBM E-score": 0.0373}, {"sequence": "AACTGAGG", "PBM E-score": 0.19}, {"sequence": "GGTGAACA", "PBM E-score": -0.231}, {"sequence": "AGGTACAA", "PBM E-score": 0.394}, {"sequence": "CGAAGCCA", "PBM E-score": -0.0797}, {"sequence": "ATTCCGAC", "PBM E-score": 0.162}, {"sequence": "AACCACAA", "PBM E-score": 0.042}, {"sequence": "GCGCCTTA", "PBM E-score": 0.13}, {"sequence": "AAATCTCT", "PBM E-score": 0.0194}, {"sequence": "GTAACTAC", "PBM E-score": -0.0463}, {"sequence": "CGGAGGCA", "PBM E-score": 0.0744}, {"sequence": "CGACAGAC", "PBM E-score": -0.0767}, {"sequence": "AACCTGTA", "PBM E-score": 0.0278}, {"sequence": "AGTGGACG", "PBM E-score": 0.212}, {"sequence": "ACTATTTG", "PBM E-score": 0.12}, {"sequence": "GACCCCGC", "PBM E-score": -0.278}, {"sequence": "CCACCCTC", "PBM E-score": -0.111}, {"sequence": "CCCAGGAA", "PBM E-score": -0.112}, {"sequence": "GAAGACGA", "PBM E-score": 0.00942}, {"sequence": "ACGTTGCA", "PBM E-score": -0.0332}, {"sequence": "ATTCGAAT", "PBM E-score": -0.00617}, {"sequence": "ATGCCGAA", "PBM E-score": 0.129}, {"sequence": "CTTGGCTA", "PBM E-score": 0.124}, {"sequence": "CTTAGGCA", "PBM E-score": -0.0986}, {"sequence": "ACCGTCAC", "PBM E-score": -0.135}, {"sequence": "GACATCTC", "PBM E-score": 0.288}, {"sequence": "AAGAGGTA", "PBM E-score": -0.0393}, {"sequence": "TATGCGAA", "PBM E-score": 0.0104}, {"sequence": "CGTTGTAG", "PBM E-score": 0.0727}, {"sequence": "AACGCTTA", "PBM E-score": -0.15}, {"sequence": "CGCTATTA", "PBM E-score": 0.128}, {"sequence": "AGGTATCG", "PBM E-score": 0.0911}, {"sequence": "CTGGGGTC", "PBM E-score": -0.217}, {"sequence": "CATTTGGG", "PBM E-score": 0.0262}, {"sequence": "AAGTCTAT", "PBM E-score": 0.161}, {"sequence": "CAAAGGAA", "PBM E-score": 0.116}, {"sequence": "GAGCCGTA", "PBM E-score": 0.0576}, {"sequence": "GCAATTCA", "PBM E-score": 0.0495}, {"sequence": "CGCACGTC", "PBM E-score": 0.205}, {"sequence": "CACCAATA", "PBM E-score": 0.121}, {"sequence": "AGACTAAT", "PBM E-score": 0.157}, {"sequence": "ACCAGATA", "PBM E-score": 0.113}, {"sequence": "ACCTGCTC", "PBM E-score": -0.0808}, {"sequence": "CCCCACTC", "PBM E-score": -0.24}, {"sequence": "AGCTGGCG", "PBM E-score": -0.182}, {"sequence": "TAGAGTGA", "PBM E-score": -0.0167}, {"sequence": "CATGTAAC", "PBM E-score": 0.143}, {"sequence": "AATAGTAG", "PBM E-score": 0.11}, {"sequence": "GTTTGATA", "PBM E-score": 0.127}, {"sequence": "CGCAATTA", "PBM E-score": 0.0552}, {"sequence": "AAAGTACG", "PBM E-score": 0.141}, {"sequence": "GTCATACA", "PBM E-score": 0.203}, {"sequence": "ACAAAGCT", "PBM E-score": 0.256}, {"sequence": "AGTGCATG", "PBM E-score": 0.0205}, {"sequence": "ATATCGCC", "PBM E-score": 0.0873}, {"sequence": "GCCTTCAA", "PBM E-score": -0.151}, {"sequence": "ACTTTCAC", "PBM E-score": 0.243}, {"sequence": "CAACCGTC", "PBM E-score": -0.206}, {"sequence": "AACACACT", "PBM E-score": -0.12}, {"sequence": "CCTAGCGC", "PBM E-score": -0.165}, {"sequence": "ATTATACC", "PBM E-score": 0.15}, {"sequence": "ATATTGCA", "PBM E-score": 0.0964}, {"sequence": "TAGCCAAA", "PBM E-score": 0.0767}, {"sequence": "CTCTAGTC", "PBM E-score": -0.163}, {"sequence": "TGACCCAA", "PBM E-score": 0.0175}, {"sequence": "AAACTGGC", "PBM E-score": -0.0541}, {"sequence": "ATCAGAAC", "PBM E-score": -0.125}, {"sequence": "AGGGGGTA", "PBM E-score": -0.301}, {"sequence": "AGCTGGCA", "PBM E-score": -0.121}, {"sequence": "CCTTGCGA", "PBM E-score": 0.028}, {"sequence": "AGTCGGAG", "PBM E-score": -0.189}, {"sequence": "GGCACGTA", "PBM E-score": 0.0163}, {"sequence": "GCAACGGC", "PBM E-score": -0.0426}, {"sequence": "ATACGGGG", "PBM E-score": -0.124}, {"sequence": "CTTTCGAC", "PBM E-score": 0.00939}, {"sequence": "AGCCCTGG", "PBM E-score": -0.37}, {"sequence": "GGCCCTCA", "PBM E-score": -0.286}, {"sequence": "GCCACTAC", "PBM E-score": -0.277}, {"sequence": "ACACATTA", "PBM E-score": 0.0185}, {"sequence": "ACGCATAA", "PBM E-score": 0.0812}, {"sequence": "CTTGACTA", "PBM E-score": 0.0229}, {"sequence": "AGCTGGAA", "PBM E-score": -0.218}, {"sequence": "CCGAAACA", "PBM E-score": 0.277}, {"sequence": "ACACGTCA", "PBM E-score": 0.0589}, {"sequence": "ATTCCTCA", "PBM E-score": 0.0824}, {"sequence": "AGTATCAT", "PBM E-score": 0.0644}, {"sequence": "AGTCTTTA", "PBM E-score": -0.142}, {"sequence": "ATAGATAG", "PBM E-score": 0.133}, {"sequence": "ACGCACAT", "PBM E-score": 0.0159}, {"sequence": "TACGGGCA", "PBM E-score": -0.156}, {"sequence": "CTCGCGAC", "PBM E-score": 0.0116}, {"sequence": "CCAAGACA", "PBM E-score": 0.281}, {"sequence": "AGACGGCG", "PBM E-score": 0.01}, {"sequence": "CTCATGAC", "PBM E-score": 0.148}, {"sequence": "AGGCGTGG", "PBM E-score": -0.275}, {"sequence": "AACCAGTC", "PBM E-score": -0.0509}, {"sequence": "CCAAGCAG", "PBM E-score": -0.122}, {"sequence": "AACTAGCG", "PBM E-score": 0.00753}, {"sequence": "AATCTGTG", "PBM E-score": -0.181}, {"sequence": "GGATCTAA", "PBM E-score": -0.0482}, {"sequence": "CGCTTACG", "PBM E-score": -0.274}, {"sequence": "ATTACGTG", "PBM E-score": -0.0695}, {"sequence": "ACACTCCA", "PBM E-score": -0.072}, {"sequence": "GAGGGATA", "PBM E-score": -0.165}, {"sequence": "CTAACCCC", "PBM E-score": -0.363}, {"sequence": "GGATCGTA", "PBM E-score": -0.0722}, {"sequence": "GTCGGCTA", "PBM E-score": 0.056}, {"sequence": "CTATCAGC", "PBM E-score": 0.0472}]}]}
